Results published in the supplement of paper PMC10126150.
Values marked as one replicate rest on one cluster of the flow cell; about a third of the high ones do not repeat.

Test system: ATP
Test: switch fluorescence ratio, 500 uM ATP over buffer (Cy3 cluster intensity, sum of 5 cycles each) (fold (ratio)); higher = stronger signal-on switching upon ATP binding; sequences stand for … in TCGTCGGCAGCGTCAGATGTGTATAAGAGACAGTTTTTTTTTTTTTTTTTTTTTTTTT…TC
Conditions: aptamer strand: ATP DNA aptamer (quencher-CACCTGGGGGAGTATTGCGGAGGAAGG + anchor), 100 nM annealed; ATP concentration: 500 uM; one replicate
How it was run: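 Between each of five buffer/ATP cycles, the flow-cell was stripped with NaOH and re-annealed. Each cycle imaged Cy3-labelled switching-strand clusters, annealed to 100 nM quencher-labelled ATP aptamer on a modified Illumina MiSeq flow-cell, first in selection buffer and then after 15 min with 500 uM ATP at 22 °C. The fluorescence ratio is summed target-cycle over summed buffer-cycle Cy3 intensity per cluster, averaged per switch-domain sequence, with clusters outside 100-1000 RFU excluded.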
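Also: ATP exposure 15 min at 22 °C before imaging.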

## TCATCCAGCG
  switch fluorescence ratio: 1.46

## GGCTAGTAG
  switch fluorescence ratio: 1.05

## ATTTAGCGC
  switch fluorescence ratio: 0.995

## ACGGTATCAT
  switch fluorescence ratio: 1.05

## GCTGCACGCC
  switch fluorescence ratio: 1.04

## AGAAGTAGGT
  switch fluorescence ratio: 0.992

## CGTTGGCGCC
  switch fluorescence ratio: 0.996

## TCTGCGTGT
  switch fluorescence ratio: 1.02

## ACCGAGCGCT
  switch fluorescence ratio: 1.06

## AGGAAGGCTG
  switch fluorescence ratio: 1.07

## AAATCGATAC
  switch fluorescence ratio: 1.28

## TCGTGCAGCG
  switch fluorescence ratio: 0.947

## TGGGGATAGA
  switch fluorescence ratio: 0.994

## GCGAATGAGG
  switch fluorescence ratio: 0.957

## TGTGTGTAGG
  switch fluorescence ratio: 1

## CGAGTTGCAC
  switch fluorescence ratio: 0.962

## GAAATATACG
  switch fluorescence ratio: 1.03

## CGAAACTATG
  switch fluorescence ratio: 1.03

## GGTGCAAAG
  switch fluorescence ratio: 0.978

## GACTGAACCC
  switch fluorescence ratio: 1.1

## GGCAGAAGAG
  switch fluorescence ratio: 1.06

## TTACCATCTT
  switch fluorescence ratio: 1.06

## AGACCGTATT
  switch fluorescence ratio: 1.12

## GAGACACTCT
  switch fluorescence ratio: 0.958

## CGCAGGTTTA
  switch fluorescence ratio: 0.976

## GTTGTATTGC
  switch fluorescence ratio: 0.992

## ATCGTGCTTC
  switch fluorescence ratio: 0.971

## ACTTCCAGCT
  switch fluorescence ratio: 1.2

## TTCTCTGTGC
  switch fluorescence ratio: 1.4

## TAGGTAACTC
  switch fluorescence ratio: 0.954

## CTCTGTATCA
  switch fluorescence ratio: 1.04

## ACGTAAGAAG
  switch fluorescence ratio: 1.1

## CACAGCGCAT
  switch fluorescence ratio: 1.05

## CCATGCAGCA
  switch fluorescence ratio: 1.04

## CGGACTGACC
  switch fluorescence ratio: 1.1
